{"source": "PubChem BioAssay AID1347120", "about": "(National Center for Advancing Translational Sciences (NCATS), 2019)", "note": "The whole screen tested about 390,000 compounds, of which about 930 (0.24%) were called active. Inconclusive results, whose numbers are uncertain, are shown with a selection of clear calls. The call rests on the fitted dose curve; in most records, active means well fitted activation curve with a large enough effect; inconclusive means small, poorly fitted or top-dose-only effect; inactive means no such curve, though single readings can be large or run the other way. A potency beside an inconclusive call is a rough fit, not a confirmed value. Potency means the concentration at half of the fitted maximal effect; tags describe the fitted curve by direction and shape.", "data": [{"assay": "qHTS for Suppressors of FUS Proteinopathy: Primary screen using FUS-linked yeast assay; further: nearly all actives have a fitted effect of over 55% in size;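 on growth rescue (activation): plate controls were DMSO vehicle for no effect and reference control for full effect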", "details": "S. cerevisiae FUS-expressing, OD600, 24 h; Potency: growth rescue; growth rescue (activation): at 76.6 µM (top of the series)", "summary_of_the_method": "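Yeast expressing FUS under galactose induction, OD 0.005 in 2% galactose medium; compounds in a dilution series, 24 h at 30C. Growth rescue by absorbance at 600 nm; CP55940 positive control, DMSO negative.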", "values": [{"smiles": "Cc1ccccc1-c1cc2nc(NCc3ccc4occc4c3)n(C)c(=O)c2s1", "Potency": "inconclusive: 22.4 µM [activator, single point]"}, {"smiles": "Cc1ccc2oc(C(=O)NCc3ccc4c(c3)OCO4)c(C)c2c1", "Potency": "inactive"}, {"smiles": "Cc1ccc(CNC(=O)c2ccc(CN3CC(=O)N4CCCCC4C3=O)cc2)cc1", "note": "(configuration not stated)", "Potency": "inactive"}, {"smiles": "Cc1ccc(Cn2nnc3c(=O)[nH]c(C4CCN(S(=O)(=O)c5ccccc5F)CC4)nc32)cc1", "Potency": "inconclusive: 0.891 µM [activator, full curve, poor fit]"}, {"smiles": "COCc1cc(=O)[nH]c(-c2csc(C)n2)n1", "Potency": "inactive"}, {"smiles": "Cc1ccc(-n2c3c(c(=O)[nH]c2=O)C(C(F)(F)F)(C(F)(F)F)NC(=O)N3)cc1", "growth rescue (activation)": "inconclusive: 58.2% [activator]"}, {"smiles": "COC(=O)c1cccc(-n2c(C)cc(/C=C3\\SC(=O)NC3=O)c2C)c1", "Potency": "inconclusive: 22.4 µM [activator, partial curve]"}, {"smiles": "CC(C)C(OC(=O)c1cc2occc2n1C)C(=O)NCc1ccc2c(c1)OCO2", "note": "(configuration not stated)", "Potency": "inconclusive: 17.8 µM [activator, partial curve, poor fit]"}, {"smiles": "CCOc1cc(CCNC(=O)c2cc(-c3ccccc3)c(N3CCOCC3)s2)ccc1OC", "Potency": "inconclusive: 20 µM [activator, partial curve, poor fit]"}, {"smiles": "Cc1nc(NCc2ccc3c(c2)OCO3)c2oc3ccccc3c2n1", "Potency": "inactive"}, {"smiles": "Cc1ccc2c(c1)C(=O)OC(C(=O)Nc1ncc(Cc3ccc(Cl)cc3)s1)C2", "note": "(configuration not stated)", "Potency": "inactive"}, {"smiles": "O=C(Nc1ccc2c(c1)OCO2)c1cc(C2CCCCN2C(=O)CCc2ccccc2)on1", "note": "(configuration not stated)", "Potency": "inconclusive: 15.8 µM [activator, partial curve]"}, {"smiles": "O=C(c1ccc2c(c1)CCN2S(=O)(=O)c1ccc(Cl)cc1)N1CCN(c2ccc(F)cc2)CC1", "Potency": "inconclusive: 12.6 µM [activator, partial curve]"}, {"smiles": "O=[N+]([O-])c1cc2c(cc1CN1CCN(CCOCCO)CC1)OCO2", "Potency": "inconclusive: 0.891 µM [activator, full curve, poor fit]"}, {"smiles": "COC(=O)CNC(=O)C(C)NC(=O)OCc1ccccc1", "note": "(configuration not stated)", "growth rescue (activation)": "inconclusive: -47% [activator]"}, {"smiles": "COc1ccc(OC)c(S(=O)(=O)N(CCc2ccc(OC)c(OC)c2)Cc2cccs2)c1", "Potency": "inconclusive: 35.5 µM [activator, single point]"}, {"smiles": "c1ccc(N2CCN(c3nnc(Cc4cccnc4)c4ccccc34)CC2)nc1", "Potency": "inconclusive: 50.1 µM [activator, single point]"}, {"smiles": "CC(=O)c1ccc(NC(=O)CNc2cc(S(=O)(=O)N3CCOCC3)ccc2N2CCCC2)cc1", "Potency": "inconclusive: 22.4 µM [activator, partial curve]"}, {"smiles": "COc1ccc(S(=O)(=O)NCC(c2ccc(N(C)C)cc2)N2CCc3ccccc32)cc1OC", "note": "(configuration not stated)", "Potency": "inconclusive: 35.5 µM [activator, single point]"}, {"smiles": "CCc1ccc(NC(=O)C(CC)n2c(=O)c(-c3ccccc3NC(C)=O)nc3ccccc32)cc1", "note": "(configuration not stated)", "Potency": "inconclusive: 28.2 µM [activator, partial curve, poor fit]"}, {"smiles": "CCOC(=O)[C@@]12CCC3=C1N(CCC3)C(=O)[C@H](CC(=O)NCC1CCCCC1)C2", "Potency": "inactive"}, {"smiles": "O=C(NCC(c1ccco1)N1CCc2ccccc21)c1ccccc1Br", "note": "(configuration not stated)", "Potency": "inactive"}, {"smiles": "COc1ccc(S(=O)(=O)Nc2cccc3c2O[C@H](CN(C)Cc2ccc(Cl)c(Cl)c2)[C@@H](C)CN([C@H](C)CO)C3=O)cc1", "Potency": "inconclusive: 14.1 µM [activator, partial curve]"}, {"smiles": "CCOCCCNC(=O)NC12CC3CC(CC(C3)C1)C2", "growth rescue (activation)": "inconclusive: 64.4% [activator]"}, {"smiles": "COCCN(C(=O)c1ccccc1F)c1nnc(-c2ccc(OC)cc2)s1", "Potency": "inconclusive: 22.4 µM [activator, single point]"}, {"smiles": "CCCC(CCC)C(=O)NC1CC(=O)N(c2ccc3c(c2)OCCO3)C1", "note": "(configuration not stated)", "Potency": "inactive"}, {"smiles": "O=C(Nc1nnc(S(=O)(=O)N2CCc3ccccc32)s1)c1cccc(Cl)c1", "Potency": "inactive"}, {"smiles": "O=C(C1CCCC1)N1CCC(CC2CC(c3cccc(Br)c3)=NO2)(C(=O)NCC2CCCCC2)CC1", "note": "(configuration not stated)", "Potency": "inconclusive: 35.5 µM [activator, single point]"}, {"smiles": "COc1ccccc1N1CCN(C(=O)c2ccc3[nH]c4c(c3c2)CC(C)CC4)CC1", "note": "(configuration not stated)", "Potency": "inconclusive: 50.1 µM [activator, partial curve, poor fit]"}, {"smiles": "COc1ccc(NC(=O)C2CCCN(c3nnc(C)c4c(C)n(-c5ccccc5)nc34)C2)cc1Cl", "note": "(configuration not stated)", "Potency": "inconclusive: 14.1 µM [activator, partial curve]"}, {"smiles": "COc1ccc(NS(=O)(=O)c2cccc(NC(=O)NC3CCCCC3)c2)cc1", "Potency": "inconclusive: 22.4 µM [activator, partial curve]"}, {"smiles": "CCOc1ccc(NC(=O)CSc2nc(=O)n(Cc3ccccn3)c3c2CCC3)cc1", "Potency": "inconclusive: 12.6 µM [activator, partial curve]"}, {"smiles": "Cc1[nH]c2ccccc2c1C(=O)C(C)OC(=O)c1ccc(NC(=O)CC#N)cc1", "note": "(configuration not stated)", "Potency": "inconclusive: 14.1 µM [activator, partial curve, poor fit]"}, {"smiles": "COc1ccc(NC(=O)N2CCN(S(=O)(=O)c3ccc4c(ccn4C)c3)CC2)c(OC)c1", "Potency": "active: 12.6 µM"}, {"smiles": "Cc1cccc(NC(=O)CSc2nnc(CNC(=O)c3ccc(S(=O)(=O)N(C)C)cc3)n2-c2ccc(F)cc2)c1", "Potency": "inconclusive: 35.5 µM [activator, single point]"}, {"smiles": "C=CCC(=O)OCCCCCCOc1ccc(C(=O)O)cc1", "Potency": "inactive"}, {"smiles": "COc1cc(-c2nc(C(N)=O)c3c(n2)n(-c2cccc(C)c2)c(=O)n3C)cc(OC)c1OC", "Potency": "inactive"}, {"smiles": "CC(Nc1nc(N2CCCCC2)nc2ccccc12)c1ccccc1", "note": "(configuration not stated)", "Potency": "inactive"}, {"smiles": "CC(C)c1ccc(NC(=O)Cn2c3ncccc3c(=O)n2-c2ccccc2)cc1", "Potency": "inconclusive: 22.4 µM [activator, partial curve, poor fit]"}, {"smiles": "CCc1cc(-c2nnn(CCC3COCCO3)c2C(C)(C)O)ccc1-c1cn(CCc2c[nH]c3ccccc23)nn1", "note": "(configuration not stated)", "Potency": "inconclusive: 22.4 µM [activator, single point]"}, {"smiles": "Cn1c2c(c(=O)n(C)c1=O)C(C(F)(F)F)(C(F)(F)F)N=C(CCC1CCCCC1)N2", "Potency": "inconclusive: 22.4 µM [activator, partial curve, poor fit]"}, {"smiles": "Cc1cccn2c(=O)cc(COc3cccc(NC(=O)c4cccc(Cl)c4)c3)nc12", "Potency": "inactive"}, {"smiles": "CC(=O)NC(Cc1ccc(F)cc1)C(=O)NC1CCN(C(=O)Nc2ccc(F)cc2)CC1", "note": "(configuration not stated)", "Potency": "inactive"}, {"smiles": "Cn1ccc2c(-c3ccc(C(C)(C)C)cc3)cc3c(c21)C1CCC3C1", "note": "(configuration not stated)", "Potency": "inactive"}, {"smiles": "COc1cc(OC)c2c(-c3ccccc3)cc(=O)oc2c1C(CC(=O)N1CCCC1)c1ccc2c(c1)OCO2", "note": "(configuration not stated)", "Potency": "inconclusive: 35.5 µM [activator, single point]"}, {"smiles": "CCc1nnc(NC(=O)C2CCN(C(=O)NC3CCCCC3)CC2)s1", "Potency": "inactive"}, {"smiles": "CCN(C(=O)COC(=O)c1ccccc1Nc1ccccc1)c1c(N)n(Cc2ccccc2)c(=O)[nH]c1=O", "Potency": "inconclusive: 28.2 µM [activator, single point]"}, {"smiles": "O=c1c2ccccc2c(/C=N/n2cnnc2)c(O)n1-c1ccccc1F", "Potency": "inconclusive: 31.6 µM [activator, partial curve]"}, {"smiles": "CCN1CCN(c2ccc(S(=O)(=O)N3CCCCC3)cc2NC(=O)/C=C/c2ccc(OC(F)F)cc2)CC1", "Potency": "inconclusive: 31.6 µM [activator, single point]"}, {"smiles": "CC(C)c1ccc(OCC(=O)NCC(c2ccc(Cl)cc2)N2CCOCC2)cc1", "note": "(configuration not stated)", "Potency": "inconclusive: 25.1 µM [activator, partial curve, poor fit]"}, {"smiles": "Cc1nc2c(C(=O)NCCc3ccc(Cl)cc3)cnn2c(C)c1Cc1ccc(F)cc1", "Potency": "active: 31.6 µM"}, {"smiles": "COc1ccc(CNc2nc(NCc3ccc(OC)cc3)n(S(C)(=O)=O)n2)cc1", "Potency": "inactive"}, {"smiles": "COc1ccc(-c2ccc3c(c2)O[C@H](CN(C)C(=O)Nc2ccccc2F)[C@@H](C)CN([C@H](C)CO)S3(=O)=O)cc1", "Potency": "inconclusive: 22.4 µM [activator, single point]"}, {"smiles": "COc1ccc(-c2cc(N3C(=O)Nc4ccccc4N3O)n[nH]2)c(OC)c1", "Potency": "inconclusive: 28.2 µM [activator, single point]"}, {"smiles": "CO[C@H]([C@H](C)/C=C/N(C)C=O)[C@@H](C)C(=O)CC[C@H](C)[C@H](O)[C@H](C)[C@H]1OC(=O)/C=C/C(C)=C/C[C@H](O)C[C@@H]2C=CC[C@@H](C[C@H](OC)C(C)(O)[C@@H](OC)C[C@@H](OC)[C@@H]1C)O2", "note": "(some centres not stated)", "Potency": "inconclusive: 10 µM [activator, partial curve, poor fit]"}, {"smiles": "COCC(=O)N(C)C[C@H]1Oc2ncc(C#C[C@H](C)O)cc2C(=O)N([C@@H](C)CO)C[C@H]1C", "Potency": "inactive"}, {"smiles": "N#CC1=C(N)N(c2ccccc2Sc2ccccc2)C(=O)C1", "Potency": "active: 28.2 µM"}, {"smiles": "CCSc1nnc(NC(=O)C2Cc3ccccc3CN2S(=O)(=O)CC)s1", "note": "(configuration not stated)", "Potency": "active: 3.55 µM"}, {"smiles": "COc1ccc(C2(c3ccc(OC)cc3)NC(=O)N(CC(=O)Nc3ccc(C(=O)N(C)C)cc3)C2=O)cc1", "Potency": "inconclusive: 35.5 µM [activator, single point]"}, {"smiles": "COc1ccc(OCc2cc(C(=O)N(C)Cc3cc(C)no3)no2)c(Cl)c1", "Potency": "inconclusive: 25.1 µM [activator, partial curve, poor fit]"}, {"smiles": "O=C(NCCC1=CCCCC1)c1ccc2c(c1)N(Cc1ccccc1)C(=O)c1ccccc1S2=O", "note": "(configuration not stated)", "Potency": "inconclusive: 15.8 µM [activator, partial curve, poor fit]"}, {"smiles": "Cc1ccc(S(=O)(=O)N2C(c3ccccc3)CC(=O)C3CN(S(=O)(=O)c4ccc(Cl)cc4)C(c4ccccc4)CC32)cc1", "note": "(configuration not stated)", "Potency": "inconclusive: 35.5 µM [activator, single point]"}]}]}
